# “And” between values parts separate entries of the source, which are not always exact repeats. Identical values can stand only once. Counter-ions that a name gives are not always drawn. ± gives the standard deviation of the averaged measurements. Whole data set: some 3,100 compounds, median “mean cytoplasmic OPP incorporation (global translation) relative to DMSO” near 100, cut for the lowest 2% near 56. This is one part of the list.
# System: U2OS
# Assay: mean cytoplasmic OPP incorporation (global translation) relative to DMSO (% of DMSO); higher = more protein synthesis
# Conditions: 10 µM; 24 h
# Experimental: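 Primary image-based screen in U2OS cells: compounds at 10 uM for 24 h, then a 1 h o-propargyl-puromycin (OPP) pulse, click labelling, and high-throughput microscopy. Mean cytoplasmic OPP intensity and nuclei count were normalised to DMSO wells within each plate (DMSO = 100) and averaged over triplicate plates.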
row,Compound,mean cytoplasmic OPP incorporation
1,CCCc1nc2c(C)cc(-c3nc4ccccc4n3C)cc2n1Cc1ccc(-c2ccccc2C(=O)O)cc1 [Telmisartan],115
2,CCCCOC(=O)c1ccc(O)cc1 [Butylparaben],92
3,COCCCOc1cc(C[C@@H](C[C@H](N)[C@@H](O)C[C@H](C(=O)NCC(C)(C)C(N)=O)C(C)C)C(C)C)ccc1OC [Aliskiren hemifumarate],98.8
4,CNCCCCOc1ccccc1Cc1ccccc1 [Bifemelane hydrochloride],107
5,"Nc1ncnc2c1nc(Br)n2[C@@H]1O[C@@H]2COP(=O)(O)O[C@H]2[C@H]1O [8-Bromo-cAMP, sodium salt]",104
6,CCCCC1C(=O)N(c2ccccc2)N(c2ccccc2)C1=O [Phenylbutazone],102
7,COc1cc2ncnc(Nc3ccc(F)c(Cl)c3)c2cc1NC(=O)/C=C/CN1CCCCC1,103 and 108
8,Nc1nccc(-c2ccc3noc(-c4ccc(Cl)cc4)c3c2)n1 [PIM 1 Inhibitor 2],105
9,O=C(CCCCC(=O)Nc1c(I)cc(I)c(C(=O)O)c1I)Nc1c(I)cc(I)c(C(=O)O)c1I [Iodipamide],92.3
10,CC(C)C1C2CCC(C2)C1N (configuration not stated),109
11,CO[C@@H]1[C@H](O)[C@@H](CO)O[C@H]1n1cnc2c(NC3CCCCC3)ncnc21,91.9
12,CNCC[C@@H](Oc1ccccc1C)c1ccccc1 [Tomoxetine hydrochloride],99.9 ± 2.1
13,"O=C(O)Cc1cc(I)c(Oc2ccc(O)c(I)c2)c(I)c1 [Tiratricol, 3,3',5-triiodothyroacetic acid]",96.6
14,Cc1cc(Nc2ncc(Cl)c(Nc3ccccc3S(=O)(=O)C(C)C)n2)c(OC(C)C)cc1C1CCNCC1 [Ceritinib (LDK378)],25.4
15,COCCCOc1ccnc(C[S+]([O-])c2nc3ccccc3[nH]2)c1C (configuration not stated) [Rabeprazole Sodium salt],98.3
16,C[C@@H](Oc1cc(-c2cnn(C3CCNCC3)c2)cnc1N)c1c(Cl)ccc(F)c1Cl,92.6
17,Cn1cc(/C=C/C(=O)c2cccc(F)c2)cc1/C=C/C(=O)NO,88.4
18,N=C(N=C(N)N)N1CCOCC1 [Moroxidine hydrochloride],91.2
19,CC(=O)OCC(=O)[C@@]12OC3(CCCC3)O[C@@H]1C[C@H]1[C@@H]3CCC4=CC(=O)C=C[C@]4(C)[C@@]3(F)[C@@H](O)C[C@@]12C [Amcinonide],101
20,COc1nc(C)cnc1NS(=O)(=O)c1cccnc1-c1ccc(-c2nnco2)cc1 [Zibotentan (ZD4054)],110
21,Cn1cc(C2=C(c3cn(CCCSC(=N)N)c4ccccc34)C(=O)NC2=O)c2ccccc21 [Ro 31-8220 mesylate],62.4
22,Cn1cc(C2=C(c3cn(CCCSC(=N)N)c4ccccc34)C(=O)NC2=O)c2ccccc21 [Ro 31-8220 Mesylate],30.3
23,Nc1ccccc1NC(=O)CCCCCCC(=O)Nc1ccccc1,92.9
24,N[C@@H](CC(=O)N1CCn2c(nnc2C(F)(F)F)C1)Cc1cc(F)c(F)cc1F [Sitagliptin phosphate monohydrate],89.2
25,CC(C)(C)OC(=O)N[C@H]1CCCCC/C=C\[C@@H]2C[C@@]2(C(=O)NS(=O)(=O)C2CC2)NC(=O)[C@@H]2C[C@@H](OC(=O)N3Cc4cccc(F)c4C3)CN2C1=O [Danoprevir],99
26,CC1(C)C(=O)N(CCN2CCC(C(=O)c3ccc(F)cc3)CC2)c2ccccc21,117

row,Compound,mean cytoplasmic OPP incorporation
1,NC(=O)Nc1sc(-c2ccc(F)cc2)cc1C(N)=O,76.5 ± 9.7
2,CCN(CC)CC1CCCCN1CC(=O)N1c2ccccc2C(=O)Nc2cccnc21 (configuration not stated),108
3,C[C@H](CCC(=O)O)[C@H]1CC[C@H]2[C@@H]3C[C@H](O)[C@@H]4C[C@H](O)CC[C@]4(C)[C@H]3CC[C@]12C [Hyodeoxycholic acid (HDCA)],98.3
4,O=C(Nc1ccccc1)OCC(CN1CCCCC1)OC(=O)Nc1ccccc1 (configuration not stated) [Diperodon hydrochloride],107
5,CC(=O)Nc1ccc(OCC(O)CNC(C)C)cc1 (configuration not stated) [Practolol],107
6,CO/N=C(\C(=O)N[C@@H]1C(=O)N2C(C(=O)O)=C(CSC(=O)c3ccco3)CS[C@H]12)c1csc(N)n1 [Ceftiofur HCl],99.5
7,N[C@@H]1CCN(O)C1=O,97.8
8,CN1[C@@H]2CC[C@H]1C[C@@H](OC(c1ccccc1)c1ccccc1)C2 [Benztropine mesylate],108 ± 4.4
9,O=C1NN(C(=O)Nc2ccc(Br)cc2)[C@@H](c2ccccc2)[C@@H]1c1ccccc1,94.8
10,C[C@@H]1O[C@@H](OC[C@H]2O[C@@H](Oc3c(-c4ccc(O)c(O)c4)oc4cc(O)cc(O)c4c3=O)[C@H](O)[C@@H](O)[C@@H]2O)[C@H](O)[C@H](O)[C@H]1O [Rutin (Rutoside)],101
11,CCCC(=O)Nc1ccc(OCC(O)CNC(C)C)c(C(C)=O)c1 (configuration not stated) [Acebutolol hydrochloride],107
12,COc1ccnc2[nH]cc(C(=O)C(=O)N3CCN(C(=O)c4ccccc4)C[C@H]3C)c12,107
13,CC(=O)O[C@]1(C(C)=O)CC[C@H]2[C@@H]3C=C(C)C4=CC(=O)CC[C@]4(C)[C@H]3CC[C@@]21C [Megestrol Acetate],103
14,CC(=O)O[C@]1(C(C)=O)CC[C@H]2[C@@H]3C=C(C)C4=CC(=O)CC[C@]4(C)[C@H]3CC[C@@]21C [Megestrol acetate],102
15,C=C1[C@H](CO)[C@@H](O)C[C@@H]1n1cnc2c(=O)[nH]c(N)nc21 [Entecavir hydrate],101
16,Cc1cccc(C)c1NC(=O)CN1CCN(CCCC(c2ccc(F)cc2)c2ccc(F)cc2)CC1 [Lidoflazine],113
17,Nc1nc(=O)[nH]cc1F [Flucytosine],101
18,Clc1cc(Cl)c(OCC#CI)cc1Cl [Haloprogin],104
19,CCN1CCN(c2ccc(Nc3cc(N(C)C(=O)Nc4c(Cl)c(OC)cc(OC)c4Cl)ncn3)cc2)CC1,102
20,Oc1cc(O)cc(/C=C/c2ccc(O)c(O)c2)c1 [Piceatannol],96 ± 11
21,Cc1cc(Nc2cc(CN3CCOCC3)c3nc(C)c(Cc4ccc(Cl)cc4F)n3n2)n[nH]1,140
22,Nc1nnc(-c2cccc(Cl)c2Cl)c(N)n1 [Lamotrigine],96.1
23,CC[C@@]1(O)C(=O)OCc2c1cc1n(c2=O)Cc2cc3c(CN(C)C)c(O)ccc3nc2-1 [Topotecan],82.7
24,CCCCCS(=O)(=O)CCCCCCCCCCn1c(-c2ccc(O)cc2)c(C)c2cc(O)ccc21,104
25,O=C1c2ccccc2-c2nc3nonc3nc21,81.3
26,NC(C(=O)O)c1ccc(C(=O)O)c(C(=O)O)c1 (racemic),91.4 and 107

row,Compound,mean cytoplasmic OPP incorporation
1,COc1cc2ncnc(Nc3ccc(O)c(Br)c3)c2cc1OC,87 ± 6
2,O=C(O)c1ccc(O)c2ncccc12,99.4
3,O=C1c2ccccc2CCC1CNCCc1ccc(O)cc1 (configuration not stated) [HEAT hydrochloride],80.9
4,CCCC(=O)Nc1cccc(NC(=O)c2ccccc2Br)c1,99.9
5,CO[C@H]1C[C@@H]2CC[C@@H](C)[C@@](O)(O2)C(=O)C(=O)N2CCCC[C@H]2C(=O)O[C@H]([C@H](C)C[C@@H]2CC[C@H](n3cnnn3)[C@H](OC)C2)CC(=O)[C@H](C)/C=C(\C)[C@@H](O)[C@@H](OC)C(=O)[C@H](C)C[C@H](C)/C=C/C=C/C=C/1C [Zotarolimus (ABT-578)],96.7
6,O=C(c1ccc(Cl)cc1Cl)n1nnc2ccccc21,111
7,Cc1cccn2c(=O)c(-c3nnn[nH]3)cnc12 [Pemirolast potassium],97.6
8,CC[C@H](C)C(=O)O[C@H]1C[C@H](O)C=C2C=C[C@H](C)[C@H](CC[C@@H](O)C[C@@H](O)CC(=O)O)[C@H]21 [Pravastatin sodium],103
9,CC[C@H](C)C(=O)O[C@H]1C[C@H](O)C=C2C=C[C@H](C)[C@H](CC[C@@H](O)C[C@@H](O)CC(=O)O)[C@H]21 [Pravastatin sodium salt],109
10,CC[C@H](C)C(=O)O[C@H]1C[C@H](O)C=C2C=C[C@H](C)[C@H](CC[C@@H](O)C[C@@H](O)CC(=O)O)[C@H]21 [Pravastatin],99.9
11,O=C1CC2(CCCC2)CC(=O)N1CCCCNCC1COc2ccccc2O1 (configuration not stated),112
12,CCCc1c(OCCCOc2ccc(OCC(=O)O)cc2)ccc(C(C)=O)c1O,100
13,CC1(C)CC(=O)C(C2C3=C(CC(C)(C)CC3=O)Oc3ccccc32)C(=O)C1 (configuration not stated),107
14,O=S(=O)(c1cccc2c(Cl)cccc12)N1CCCNCC1 [ML 9 hydrochloride],103
15,CCOCCn1c(N2CCCN(C)CC2)nc2ccccc21 [Emedastine],88.6
16,CN1CC(=O)N=C1NC(=O)Nc1cccc(Cl)c1 [Fenobam],79.3
17,CC(C)(C)OC(=O)Nc1ccc(-c2cc(C(=O)NCCCCCCC(=O)NO)no2)cc1,94.1
18,Cc1nc(C)c(C)nc1C [Tetramethylpyrazine],96.9
19,Nc1nc(Nc2ccccc2)nc2c1ncn2[C@@H]1O[C@H](CO)[C@@H](O)[C@H]1O,97.9
20,O=C(OCCN1CCCCC1)c1c[nH]c2ccccc12,97.2
21,Cc1cccc(C)c1NC(=O)C[N+](C)(C)C,98.4
22,CC(C)(C)NCC(O)COc1cccc2c1CC(O)C(O)C2 (configuration not stated) [Nadolol],87.8
23,Cc1ccc(S(=O)(=O)/C=C/C#N)cc1,82.2
24,C[C@H](CCC(=O)NCCS(=O)(=O)O)[C@H]1CC[C@H]2[C@@H]3[C@H](O)C[C@@H]4C[C@H](O)CC[C@]4(C)[C@H]3C[C@H](O)[C@]12C [Taurocholic acid],102
25,Nc1ccccc1NC(=O)c1ccc(CNc2nccc(-c3cccnc3)n2)cc1 [Mocetinostat (MGCD0103)],35.5

# — the supplement of paper PMC8183993
